The values below come from the antibiotic and cytotoxicity screens of Wong et al. (2023).

Molecules are shown by their SMILES. Some of the results follow.

For one experiment, the system named is HSkMC. The experiment in a line: cytotoxicity call (relative viability < 0.9). The note with it: 10 µM.
Another experiment has as its system HepG2. The experiment in a line: cytotoxicity call (relative viability < 0.9). The note with it: 10 µM.
The subject of another experiment is S. aureus RN4220. The experiment in a line: growth inhibition call (relative growth <= 0.2). The note with it: 50 µM.

For `Cc1ccc(S(=O)(=O)Nc2ccc3c(c2)CC(=O)N([C@H](C)CO)C[C@@H](C)[C@@H](CN(C)C(=O)NC(C)C)O3)cc1`, the cytotoxicity call in the experiment with HSkMC and in the experiment on HepG2 was “inactive” throughout. The growth inhibition call in the experiment with S. aureus RN4220 was “inactive”.
As to `COc1ccc(NC(=O)Nc2ccc3c(c2)C(=O)N([C@@H](C)CO)C[C@H](C)[C@H](CN(C)C(=O)Cc2ccccc2)OCCCC[C@H](C)O3)cc1`, the cytotoxicity call with HSkMC and in the experiment with HepG2 was “inactive” throughout. For the same molecule, in the experiment with S. aureus RN4220, the growth inhibition call is “inactive”.
In the case of `CCNC(=S)N1CCC[C@H](C(N)=O)C1`, the cytotoxicity call in the experiment on HSkMC and in the experiment with HepG2 was “inactive” in each case. For the same molecule, the growth inhibition call with S. aureus RN4220 was “inactive”.
As for `Cc1ccc(S(=O)(=O)Nc2ccc3c(c2)C(=O)N([C@H](C)CO)C[C@@H](C)[C@@H](CN(C)Cc2ccncc2)OCCCC[C@H](C)O3)cc1`, the cytotoxicity call in the experiment with HSkMC and with HepG2 was “inactive” throughout. The growth inhibition call in the experiment with S. aureus RN4220 is “inactive”.
In the case of `C[C@H]1CN([C@@H](C)CO)C(=O)c2cccc(NC(=O)C3CC3)c2O[C@H]1CN(C)Cc1ccc(C(=O)O)cc1`, the cytotoxicity call in the experiment on HSkMC and in the experiment with HepG2 was “inactive” each time. In addition, the growth inhibition call in the experiment on S. aureus RN4220 was “inactive”.
As to `CCCN(C)C[C@@H]1OCCCC[C@@H](C)Oc2ccc(NC(=O)NC3CCCCC3)cc2C(=O)N([C@H](C)CO)C[C@@H]1C`, the cytotoxicity call with HSkMC was “inactive”. Further, the cytotoxicity call with HepG2 is “active”. Further, in the experiment on S. aureus RN4220, the growth inhibition call is “inactive”.
`CCOC(=O)c1ccc(N)cc1`: the cytotoxicity call in the experiment with HSkMC and with HepG2 was “inactive” throughout. In the experiment on S. aureus RN4220, the growth inhibition call was “inactive”.
With `C[C@H]1CN([C@@H](C)CO)C(=O)c2cccc(NC(=O)CCCCCC(=O)Nc3ccccc3N)c2O[C@H]1CN(C)Cc1ccc(Oc2ccccc2)cc1`, the cytotoxicity call in the experiment with HSkMC and with HepG2 was “inactive” in each case. Also, in the experiment on S. aureus RN4220, the growth inhibition call was “inactive”.
As to `CNC(=O)[C@@H](c1ccccc1)N1CCc2cc(OC)c(OC)cc2[C@@H]1CCc1ccc(C(F)(F)F)cc1`, the cytotoxicity call in the experiment with HSkMC and in the experiment with HepG2 was “inactive” throughout. The growth inhibition call with S. aureus RN4220 was “inactive”.
Consider `C[C@@H]1CN([C@H](C)CO)C(=O)Cc2cc(NS(=O)(=O)c3ccccc3)ccc2O[C@H]1CN(C)Cc1ccc(Cl)c(Cl)c1`, for which the cytotoxicity call with HSkMC and in the experiment with HepG2 was “active” in each case. The growth inhibition call in the experiment on S. aureus RN4220 was “inactive”.
For `C[C@@H]1CCCCO[C@H](CN(C)C(=O)Nc2ccc(F)cc2)[C@@H](C)CN([C@@H](C)CO)C(=O)c2cc(NS(=O)(=O)c3ccc(F)cc3)ccc2O1`, the cytotoxicity call with HSkMC is “inactive”. For the same molecule, the cytotoxicity call in the experiment with HepG2 was “active”. The growth inhibition call in the experiment with S. aureus RN4220 was “inactive”.
For `O=C(O)CCNC(=O)c1cccc([N+](=O)[O-])c1`, the cytotoxicity call in the experiment with HSkMC and in the experiment on HepG2 was “inactive” throughout. Besides, the growth inhibition call with S. aureus RN4220 was “inactive”.
Take `COc1ccccc1CNC(=O)C[C@@H]1C[C@@H]2c3cc(NC(=O)C4CCOCC4)ccc3O[C@@H]2[C@@H](CO)O1`: the cytotoxicity call with HSkMC and with HepG2 was “inactive” each time. The growth inhibition call in the experiment with S. aureus RN4220 was “inactive”.
Take `CC=Cc1ccc2n(c1=O)C[C@@H]1[C@@H](CO)[C@H](C(=O)NC3CCC3)[C@H]2N1S(=O)(=O)c1cn(C)cn1`: the cytotoxicity call in the experiment on HSkMC and with HepG2 was “inactive” each time. Further, in the experiment on S. aureus RN4220, the growth inhibition call was “inactive”.
Consider `COc1ccc(CN(C)C[C@@H]2Oc3c(NC(=O)Nc4cccc5ccccc45)cccc3C(=O)N([C@H](C)CO)C[C@@H]2C)cc1`, for which the cytotoxicity call in the experiment with HSkMC and in the experiment with HepG2 was “inactive” throughout. For the same molecule, in the experiment with S. aureus RN4220, the growth inhibition call is “inactive”.
As for `O=C(Nc1cc(C(F)(F)F)cc(C(F)(F)F)c1)Nc1cnn(-c2ccc([N+](=O)[O-])cc2)c1C(F)(F)F`, the cytotoxicity call in the experiment on HSkMC was “inactive”. The cytotoxicity call in the experiment on HepG2 is “active”. For the same molecule, in the experiment on S. aureus RN4220, the growth inhibition call is “inactive”.
Take `C[C@@H]1CN([C@H](C)CO)C(=O)c2cc(NC(=O)Cn3cnnn3)ccc2O[C@@H]1CN(C)C(=O)Nc1ccc(C(F)(F)F)cc1`: the cytotoxicity call with HSkMC and with HepG2 was “inactive” each time. Moreover, the growth inhibition call with S. aureus RN4220 was “inactive”.
Consider `C[C@@H]1CCCCO[C@H](CN(C)C(=O)C2CCCCC2)[C@@H](C)CN([C@H](C)CO)C(=O)c2cc(NC(=O)Nc3cccc4ccccc34)ccc2O1`, for which the cytotoxicity call with HSkMC and with HepG2 was “inactive” throughout. Also, the growth inhibition call in the experiment on S. aureus RN4220 is “inactive”.
As for `C[C@@H]1CN([C@@H](C)CO)C(=O)c2cc(-c3ccc(C#N)cc3)cnc2O[C@@H]1CN(C)C(=O)Nc1ccc(C(F)(F)F)cc1`, the cytotoxicity call in the experiment with HSkMC and in the experiment with HepG2 was “inactive” in each case. For the same molecule, in the experiment with S. aureus RN4220, the growth inhibition call was “inactive”.
As to `C[C@@H]1CCCCO[C@@H](CN(C)C(=O)Nc2ccc3c(c2)OCO3)[C@@H](C)CN([C@@H](C)CO)C(=O)c2cc(NC(=O)Nc3ccc(C(F)(F)F)cc3)ccc2O1`, the cytotoxicity call with HSkMC and in the experiment with HepG2 was “inactive” throughout. Also, in the experiment with S. aureus RN4220, the growth inhibition call was “inactive”.
Regarding `C[C@H](CO)N1C[C@H](C)[C@@H](CN(C)CC2CCCCC2)Oc2ccc(NC(=O)Cn3cnnn3)cc2C1=O`, the cytotoxicity call in the experiment with HSkMC and in the experiment on HepG2 was “inactive” in each case. The growth inhibition call in the experiment with S. aureus RN4220 was “inactive”.
Turning to `CC(C)(C)[S@](=O)N1Cc2cc(C(=O)NC3CCCCC3)nc(-c3cccc(Br)c3)c2[C@@H]1CCO`, the cytotoxicity call with HSkMC and with HepG2 was “inactive” throughout. In the experiment with S. aureus RN4220, the growth inhibition call was “inactive”.
On to `C[C@@H]1CN([C@H](C)CO)C(=O)Cc2cc(NC(=O)CCC(F)(F)F)ccc2O[C@H]1CN(C)S(=O)(=O)c1ccccc1`, for which the cytotoxicity call in the experiment on HSkMC and in the experiment with HepG2 was “inactive” throughout. For the same molecule, the growth inhibition call in the experiment with S. aureus RN4220 was “inactive”.
In the case of `COc1ccc(COC[C@@]23Oc4ccccc4[C@@H](NC(=O)N2C)[C@H]3COC(=O)NCCCCCC(=O)NO)cc1`, the cytotoxicity call in the experiment on HSkMC and with HepG2 was “inactive” in each case. Further, the growth inhibition call with S. aureus RN4220 is “inactive”.
`COCC(=O)N[C@@H]1C=C[C@H](CC(=O)N2CCCCC2)O[C@@H]1CO`: the cytotoxicity call in the experiment on HSkMC (human skeletal muscle cells) and with HepG2 was “inactive” throughout. Also, the growth inhibition call in the experiment with S. aureus RN4220 is “inactive”.
For `C[C@@H]1CN([C@H](C)CO)C(=O)c2cc(NC(=O)Nc3ccc4c(c3)OCO4)ccc2O[C@H]1CN(C)Cc1ccc(-c2ccccc2)cc1`, the cytotoxicity call in the experiment with HSkMC was “inactive”. Besides, in the experiment with HepG2, the cytotoxicity call is “active”. Also, the growth inhibition call with S. aureus RN4220 was “inactive”.
Take `CCN1C[C@H](C(=O)N2CCN(c3ncccc3C(N)=O)CC2)CC1=O`: the cytotoxicity call in the experiment with HSkMC and in the experiment on HepG2 was “inactive” in each case. Further, the growth inhibition call with S. aureus RN4220 was “inactive”.
In the case of `C=C(/C=C/CNS(=O)(=O)c1ccc(C)cc1)[C@H](O)[C@H]1CCCN1S(=O)(=O)c1ccccc1[N+](=O)[O-]`, the cytotoxicity call with HSkMC and with HepG2 was “inactive” each time. Moreover, the growth inhibition call in the experiment on S. aureus RN4220 is “inactive”.
